Molecules are shown by their SMILES.

For the first assay, the target named is human LRRK2(G2019S) kinase (Homo sapiens, UniProt Q5S007, G2019S). Put plainly: biochemical.
Details: not given
The protocol:
Assay kits from Promega™ Corporation were used according to instructions and adapted as outlined herein. Test compounds were generally prepared with 1:3 serial dilutions for 12 concentrations (from 50 μM to 0.01 nM) ATP competition experiments. The kinase reaction was performed with kinase reaction buffer (40 mM Tris base pH 7.4, 20 mM MgCl2, 0.5 mM dithiothreitol), 0.1 mg/ml bovine serum albumin, distilled H2O). The reaction mixtures contained Pure ATP solution (10 μM), specific substrate (0.2 μg), and (human LRRK2 kinase (25 ng)) or (human LRRK2(G2019S) kinase (16 ng)), in a total assay volume of 5 μl after the manufacturer's protocol. In brief, the kinase reactions were started by addition of ATP to the kinase reaction mixture. The resulting mixture was incubated for 60 minutes at 25° C., and then stopped by adding 5 μl of ADP-Glo™ reagent. After incubation at room temperature in the dark for 40 minutes, 10 μl of kinase detection reagent was added per well, and the mixture was incubated for 10 minutes. Luminescence was measured using a Synergy™NEO2 plate reader (BioTek®) with an integration time of 1 second per well. Positive and negative controls were performed in 0.5% DMSO in the presence and absence of LRRK2 kinases. Curve fitting and data presentations were performed using GraphPad Prism version 5.0 (GraphPad Software, Inc.). The LRKK2 and LRRK2(G2019S) assay with inventive compounds 1-64 are summarized in the table below (Table 1), wherein: […]
On to `CCNc1nc(Nc2ccc(C(=O)N3CCC(N4CCOCC4)CC3)c3c2OCCO3)nc2[nH]cc(Cl)c12` [Compound 1, (8-((5-chloro-4-(ethylamino)-7H-pyrrolo[2,3-d]pyrimidin-2-yl)amino)-2,3-dihydrobenzo[b][1,4]dioxin-5-yl)(4-morpholinopiperidin-1-yl)methanone], for which the IC50 was below 10 nM.

On to `CCCNc1nc(Nc2ccc(C(=O)N3CCC(N4CCOCC4)CC3)c3c2OCCO3)nc2[nH]cc(Cl)c12` [Compound 2, (8-((5-chloro-4-(propylamino)-7H-pyrrolo[2,3-d]pyrimidin-2-yl)amino)-2,3-dihydrobenzo[b][1,4]dioxin-5-yl)(4-morpholinopiperidin-1-yl)methanone], for which the IC50 was 10 to 100 nM.

Turning to `O=C(c1ccc(Nc2nc(NC3CC3)c3c(Cl)c[nH]c3n2)c2c1OCCO2)N1CCC(N2CCOCC2)CC1` [Compound 3, (8-((5-chloro-4-(cyclopropylamino)-7H-pyrrolo[2,3-d]pyrimidin-2-yl)amino)-2,3-dihydrobenzo[b][1,4]dioxin-5-yl)(4-morpholinopiperidin-1-yl)methanone], the IC50 was below 10 nM.

As to `O=C(c1ccc(Nc2nc(NC3CCC3)c3c(Cl)c[nH]c3n2)c2c1OCCO2)N1CCC(N2CCOCC2)CC1` [Compound 4, (8-((5-chloro-4-(cyclobutylamino)-7H-pyrrolo[2,3-d]pyrimidin-2-yl)amino)-2,3-dihydrobenzo[b][1,4]dioxin-5-yl)(4-morpholinopiperidin-1-yl)methanone], the IC50 fell in the range of 10 to 100 nM.

Regarding `COCCNc1nc(Nc2ccc(C(=O)N3CCC(N4CCOCC4)CC3)c3c2OCCO3)nc2[nH]cc(Cl)c12` [Compound 5, (8-((5-chloro-4-((2-methoxyethyl)amino)-7H-pyrrolo[2,3-d]pyrimidin-2-yl)amino)-2,3-dihydrobenzo[b][1,4]dioxin-5-yl)(4-morpholinopiperidin-1-yl)methanone], the IC50 was below 10 nM.

Take `CCNc1nc(Nc2ccc(S(=O)(=O)N3CCOCC3)cc2OC)nc2[nH]cc(Cl)c12` [Compound 6, 5-chloro-N4-ethyl-N2-(2-methoxy-4-(morpholinosulfonyl)phenyl)-7H-pyrrolo[2,3-d]pyrimidine-2,4-diamine]: the IC50 is 10 to 100 nM.

Regarding `COc1cc(S(=O)(=O)N2CCOCC2)ccc1Nc1nc(NC2CCC2)c2c(Cl)c[nH]c2n1` [Compound 7, 5-chloro-N4-cyclobutyl-N2-(2-methoxy-4-(morpholinosulfonyl)phenyl)-7H-pyrrolo[2,3-d]pyrimidine-2,4-diamine], the IC50 is 100 to 1000 nM.

Consider `CCCNc1nc(Nc2ccc(S(C)(=O)=O)cc2OC)nc2[nH]cc(Cl)c12` [Compound 8, 5-chloro-N2-(2-methoxy-4-(methylsulfonyl)phenyl)-N4-propyl-7H-pyrrolo[2,3-d]pyrimidine-2,4-diamine], for which the IC50 was in the range of 10 to 100 nM.

As to `COCCNc1nc(Nc2ccc(C(=O)N3CCOCC3)c3c2OCCO3)nc2[nH]cc(Cl)c12` [Compound 9, (8-((5-chloro-4-((2-methoxyethyl)amino)-7H-pyrrolo[2,3-d]pyrimidin-2-yl)amino)-2,3-dihydrobenzo[b][1,4]dioxin-5-yl)(morpholino)methanone], the IC50 is below 10 nM.

Take `CNc1nc(Nc2ccc(C(=O)N3CCC(N4CCOCC4)CC3)c3c2OCCO3)nc2[nH]cc(Cl)c12` [Compound 10, (8-((5-chloro-4-(methylamino)-7H-pyrrolo[2,3-d]pyrimidin-2-yl)amino)-2,3-dihydrobenzo[b][1,4]dioxin-5-yl)(4-morpholinopiperidin-1-yl)methanone]: the IC50 was below 10 nM.

As to `CNc1nc(Nc2ccc(S(=O)(=O)N3CCOCC3)cc2OC)nc2[nH]cc(Cl)c12` [Compound 11, 5-chloro-N2-(2-methoxy-4-(morpholinosulfonyl)phenyl)-N4-methyl-7H-pyrrolo[2,3-d]pyrimidine-2,4-diamine], the IC50 was below 10 nM.

Turning to `CNc1nc(Nc2ccc(S(C)(=O)=O)cc2OC)nc2[nH]cc(Cl)c12` [Compound 13, 5-chloro-N2-(2-methoxy-4-(methylsulfonyl)phenyl)-N4-methyl-7H-pyrrolo[2,3-d]pyrimidine-2,4-diamine], the IC50 was below 10 nM.

As to `CNc1nc(Nc2ccc(C(=O)N3CCOCC3)c3c2OCCO3)nc2[nH]cc(Cl)c12` [Compound 14, (8-((5-chloro-4-(methylamino)-7H-pyrrolo[2,3-d]pyrimidin-2-yl)amino)-2,3-dihydrobenzo[b][1,4]dioxin-5-yl)(morpholino)methanone], the IC50 was below 10 nM.

Regarding `CCNc1nc(Nc2ccc(S(=O)(=O)N3CCC(N4CCOCC4)CC3)cc2OC)nc2[nH]cc(Cl)c12` [Compound 15, 5-chloro-N4-ethyl-N2-(2-methoxy-4-((4-morpholinopiperidin-1-yl)sulfonyl)phenyl)-7H-pyrrolo[2,3-d]pyrimidine-2,4-diamine], the IC50 fell in the range of 10 to 100 nM.

For the molecule `CCNc1nc(Nc2ccc(S(C)(=O)=O)cc2OC)nc2[nH]cc(Cl)c12` [Compound 16, 5-chloro-N4-ethyl-N2-(2-methoxy-4-(methylsulfonyl)phenyl)-7H-pyrrolo[2,3-d]pyrimidine-2,4-diamine], the IC50 was 10 to 100 nM.

On to `CCNc1nc(Nc2ccc(C(=O)N3CCOCC3)c3c2OCCO3)nc2[nH]cc(Cl)c12` [Compound 17, (8-((5-chloro-4-(ethylamino)-7H-pyrrolo[2,3-d]pyrimidin-2-yl)amino)-2,3-dihydrobenzo[b][1,4]dioxin-5-yl)(morpholino)methanone], for which the IC50 is below 10 nM.

For `CCCNc1nc(Nc2ccc(S(=O)(=O)N3CCOCC3)cc2OC)nc2[nH]cc(Cl)c12` [Compound 18, 5-chloro-N2-(2-methoxy-4-(morpholinosulfonyl)phenyl)-N4-propyl-7H-pyrrolo[2,3-d]pyrimidine-2,4-diamine], the IC50 was in the range of 100 to 1000 nM.

Consider `CCCNc1nc(Nc2ccc(S(=O)(=O)N3CCC(N4CCOCC4)CC3)cc2OC)nc2[nH]cc(Cl)c12` [Compound 19, 5-chloro-N2-(2-methoxy-4-((4-morpholinopiperidin-1-yl)sulfonyl)phenyl)-N4-propyl-7H-pyrrolo[2,3-d]pyrimidine-2,4-diamine], for which the IC50 fell in the range of 100 to 1000 nM.

As for `CCCNc1nc(Nc2ccc(C(=O)N3CCOCC3)c3c2OCCO3)nc2[nH]cc(Cl)c12` [Compound 20, (8-((5-chloro-4-(propylamino)-7H-pyrrolo[2,3-d]pyrimidin-2-yl)amino)-2,3-dihydrobenzo[b][1,4]dioxin-5-yl)(morpholino)methanone], the IC50 lay within 10 to 100 nM.

As to `COCCNc1nc(Nc2ccc(S(=O)(=O)N3CCOCC3)cc2OC)nc2[nH]cc(Cl)c12` [Compound 21, 5-chloro-N2-(2-methoxy-4-(morpholinosulfonyl)phenyl)-N4-(2-methoxyethyl)-7H-pyrrolo[2,3-d]pyrimidine-2,4-diamine], the IC50 fell in the range of 10 to 100 nM.

`COCCNc1nc(Nc2ccc(S(=O)(=O)N3CCC(N4CCOCC4)CC3)cc2OC)nc2[nH]cc(Cl)c12` [Compound 22, 5-chloro-N2-(2-methoxy-4-((4-morpholinopiperidin-1-yl)sulfonyl)phenyl)-N4-(2-methoxyethyl)-7H-pyrrolo[2,3-d]pyrimidine-2,4-diamine]: the IC50 fell in the range of 10 to 100 nM.

For `COCCNc1nc(Nc2ccc(S(C)(=O)=O)cc2OC)nc2[nH]cc(Cl)c12` [Compound 23, 5-chloro-N2-(2-methoxy-4-(methylsulfonyl)phenyl)-N4-(2-methoxyethyl)-7H-pyrrolo[2,3-d]pyrimidine-2,4-diamine], the IC50 fell in the range of 10 to 100 nM.

As to `COc1cc(S(=O)(=O)N2CCOCC2)ccc1Nc1nc(NC2CC2)c2c(Cl)c[nH]c2n1` [Compound 24, 5-chloro-N4-cyclopropyl-N2-(2-methoxy-4-(morpholinosulfonyl)phenyl)-7H-pyrrolo[2,3-d]pyrimidine-2,4-diamine], the IC50 is 10 to 100 nM.

In the case of `COc1cc(S(=O)(=O)N2CCC(N3CCOCC3)CC2)ccc1Nc1nc(NC2CC2)c2c(Cl)c[nH]c2n1` [Compound 25, 5-chloro-N4-cyclopropyl-N2-(2-methoxy-4-((4-morpholinopiperidin-1-yl)sulfonyl)phenyl)-7H-pyrrolo[2,3-d]pyrimidine-2,4-diamine], the IC50 was below 10 nM.

Regarding `COc1cc(S(C)(=O)=O)ccc1Nc1nc(NC2CC2)c2c(Cl)c[nH]c2n1` [Compound 26, 5-chloro-N4-cyclopropyl-N2-(2-methoxy-4-(methylsulfonyl)phenyl)-7H-pyrrolo[2,3-d]pyrimidine-2,4-diamine], the IC50 is below 10 nM.

Still in this assay, the particulars now being: read-out: LRRK2(G2019S); ADP-Glo, ATP 10 μM, 60 minutes at 25° C.
With `CCC(C)Nc1nc(Nc2ccc(S(=O)(=O)N3CCC(N4CCOCC4)CC3)cc2OC)nc2[nH]cc(Cl)c12` (stereo in doubt) [Compound 52, (S)—N4-(sec-butyl)-5-chloro-N2-(2-methoxy-4-((4-morpholinopiperidin-1-yl)sulfonyl)phenyl)-7H-pyrrolo[2,3-d]pyrimidine-2,4-diamine], the IC50 was in the range of 100 to 1000 nM.

For the molecule `CCC(C)Nc1nc(Nc2ccc(S(C)(=O)=O)cc2OC)nc2[nH]cc(Cl)c12` (stereo in doubt) [Compound 53, (S)—N4-(sec-butyl)-5-chloro-N2-(2-methoxy-4-(methylsulfonyl)phenyl)-7H-pyrrolo[2,3-d]pyrimidine-2,4-diamine], the IC50 lay within 100 to 1000 nM.
